These results are taken from patent US20210324028A1 (Pfizer, published 2021).

Usually Kd stands for a measure of binding affinity in units of concentration. Read a low Kd as higher affinity. One may read the koff as the rate constant with which the complex falls apart. A low value points to slow dissociation. For orientation: kon means the second-order rate constant of association. A higher kon goes with fast association.

In assay [1] the target is T1, mouse PD-1 on doxycycline-induced 32D[pRF770+pRF791] cells (mouse, UniProt Q02242 25-288).
T1 sequence (looked up): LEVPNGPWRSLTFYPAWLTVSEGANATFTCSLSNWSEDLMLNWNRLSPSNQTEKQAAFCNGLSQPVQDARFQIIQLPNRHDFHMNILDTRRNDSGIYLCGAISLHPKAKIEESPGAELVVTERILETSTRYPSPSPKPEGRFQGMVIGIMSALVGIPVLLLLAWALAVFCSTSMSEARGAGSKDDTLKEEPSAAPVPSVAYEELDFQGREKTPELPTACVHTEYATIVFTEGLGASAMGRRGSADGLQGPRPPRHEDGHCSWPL
As to the kind of experiment: cell-based or functional assay.

Assay [2] addresses T2, IL-15 signaling receptor on 32D[pRF770+pRF791] cells (human CD122 plus mouse CD132) (human; mouse, UniProt P14784 27-551; P34902 23-369).
T2 sequence (looked up) 1: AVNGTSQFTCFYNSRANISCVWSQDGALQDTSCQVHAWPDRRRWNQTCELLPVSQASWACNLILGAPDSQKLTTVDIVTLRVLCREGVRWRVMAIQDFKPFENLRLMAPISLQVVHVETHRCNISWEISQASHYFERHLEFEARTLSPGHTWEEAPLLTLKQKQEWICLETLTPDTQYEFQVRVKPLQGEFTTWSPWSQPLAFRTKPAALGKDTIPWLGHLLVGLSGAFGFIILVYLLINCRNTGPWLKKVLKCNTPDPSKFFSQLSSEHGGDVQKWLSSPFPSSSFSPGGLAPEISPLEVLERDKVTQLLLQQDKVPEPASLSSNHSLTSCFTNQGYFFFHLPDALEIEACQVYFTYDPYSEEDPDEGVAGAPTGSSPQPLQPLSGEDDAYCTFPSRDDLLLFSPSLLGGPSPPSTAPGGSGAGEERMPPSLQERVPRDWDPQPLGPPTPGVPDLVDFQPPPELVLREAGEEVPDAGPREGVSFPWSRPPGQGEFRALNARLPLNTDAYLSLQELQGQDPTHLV
T2 sequence (looked up) 2: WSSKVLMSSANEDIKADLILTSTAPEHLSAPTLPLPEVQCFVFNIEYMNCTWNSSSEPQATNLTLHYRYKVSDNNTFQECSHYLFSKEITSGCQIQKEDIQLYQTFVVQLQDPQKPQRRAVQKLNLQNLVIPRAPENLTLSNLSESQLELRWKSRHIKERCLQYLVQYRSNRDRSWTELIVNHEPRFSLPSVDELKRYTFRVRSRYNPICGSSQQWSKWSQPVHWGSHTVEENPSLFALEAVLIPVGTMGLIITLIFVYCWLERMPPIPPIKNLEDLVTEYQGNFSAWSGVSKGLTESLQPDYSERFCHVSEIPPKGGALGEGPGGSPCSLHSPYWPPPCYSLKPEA
Nature of the assay: cell-based or functional assay.

Assay [3] deals with T3, human IL-2Rβ (human, UniProt P14784 27-240, limits assumed).
T3 construct: also called hIL-2Rβ; IL-2 receptor beta
T3 sequence (looked up): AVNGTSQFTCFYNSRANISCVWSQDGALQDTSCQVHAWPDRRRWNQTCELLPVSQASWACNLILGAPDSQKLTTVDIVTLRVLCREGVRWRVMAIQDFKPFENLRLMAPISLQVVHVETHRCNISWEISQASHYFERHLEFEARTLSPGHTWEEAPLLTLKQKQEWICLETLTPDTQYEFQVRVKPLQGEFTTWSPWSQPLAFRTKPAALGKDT
Nature of the assay: SPR, steady state, fusion captured. The protocol: (§1) Anti-human Fc sensor chips were prepared at 25° C. with a running buffer of 10 mM HEPES, 150 mM NaCl, 0.05% (v/v) Tween-20, pH 7.4. All surfaces of a Biacore CM4 sensor chip were activated with a 1:1 (v/v) mixture of 400 mM EDC and 100 mM NHS for 7 minutes, at a flow rate of 10 μL/min. An anti-human Fc reagent (Goat anti-human IgG Fc-γ specific, SouthernBiotech, Birmingham, Ala., Catalog #2014-01) was diluted to 50 μg/mL in 10 mM sodium acetate (pH 4.5) and injected on all flow cells for 7 minutes at 20 μL/min. All flow cells were blocked with 100 mM ethylenediamine in 200 mM Borate buffer pH 8.5 for 7 minutes at 10 μL/min.
(§2) All protein interaction experiments were performed at 37° C. using a running buffer of 10 mM HEPES, 150 mM NaCl, 0.05% (v/v) Tween-20, pH 7.4, 1 mg/mL BSA. Anti-PD-1-hIL-15 fusion proteins were captured at 10 μg/mL at a flow rate of 10 μL/min for 2 minutes. Different fusion proteins were captured in flow cells 2, 3 and 4. No protein was captured onto flow cell 1 which was used as a reference surface. […] After each analyte injection, dissociation was monitored for 5 minutes followed by regeneration of all flow cells with three 60-second injections of 75 mM phosphoric acid. […] For kinetic analysis, the double-referenced sensorgrams were fit globally to a simple 1:1 Langmuir with mass transport binding model using Biacore T200 Evaluation Software version 2.0. For steady-state affinity analysis, the double-referenced equilibrium binding responses were fit with a 1:1 Langmuir steady-state model using Biacore T200 Evaluation Software version 2.0.
On the technique in general: In SPR one partner is held on a chip, and binding of the other changes the refractive index at the surface.

For assay [4], the target named is T4, human IL-15Rα (human, UniProt Q13261 31-205, limits assumed).
T4 construct: also called hIL-15Rα; IL-15 receptor alpha
As to the kind of experiment: SPR 37C, fusion captured by anti-human Fc. The protocol:
as §1, §2

Assay [5] addresses T1, mouse PD-1 on doxycycline-induced …. Nature of the assay: cell-based or functional assay. The source holds these as a separate data set.
In assay [6] the target is T2, IL-15 signaling receptor on …. As to the kind of experiment: cell-based or functional assay. This is another data set of the same source.
Assay [7] has as its target T4, human IL-15Rα. As to the kind of experiment: SPR, kinetic fit, fusion captured. The protocol: as §1, §2
In assay [8] the target is T3, human IL-2Rβ. Nature of the assay: SPR, fusion captured. The protocol:
as §1
as §2, with “For steady-state affinity analysis, the double-referenced equilibrium binding responses were fit with a 1:1 Langmuir steady-state model using Biacore T200 Evaluation Software version 2.0.” left out

Like-named read-outs stand apart in the source and are kept apart here.

T4 sequence (Q13261 31-205 limits assumed): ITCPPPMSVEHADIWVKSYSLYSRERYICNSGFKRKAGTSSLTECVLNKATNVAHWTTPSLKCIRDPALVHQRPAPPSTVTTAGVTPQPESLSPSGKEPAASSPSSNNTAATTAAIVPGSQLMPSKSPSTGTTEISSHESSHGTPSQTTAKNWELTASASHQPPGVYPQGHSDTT

B1: xmPD-1-hIL15 V49R/E46G (other)
heavy 1: HHHHHHHHGGGGSGSGGEVQLVESGGGLVKPGGSLELSCAASGFTFSSYWMSWVRQAPEKGLEWVAAISPSGGSTYYADSVKGRFTISRDNAKNTLFLQMTSLRSEDTAMYYCAKESWGAYYDLWGQGTTVTVSSASTKGPSVFPLAPCSRSTSESTAALGCLVKDYFPEPVTVSWNSGALTSGVHTFPAVLQSSGLYSLSSVVTVPSSNFGTQTYTCNVDHKPSNTKVDKTVERKCRVRCPRCPAPPVAGPSVFLFPPKPKDTLMISRTPEVTCVVVAVSHEDPEVQFNWYVDGVEVHNAKTKPREEQFNSTFRVVSVLTVVHQDWLNGKEYKCKVSNKGLPSSIEKTISKTKGQPREPQVYTLPPSREEMTKNQVSLTCLVKGFYPSDIAVEWESNGQPENNYKTTPPMLDSDGSFFLYSRLTVDKSRWQQGNVFSCSVMHEALHNHYTQKSLSLSPGK
heavy 2: EVQLVESGGGLVKPGGSLELSCAASGFTFSSYWMSWVRQAPEKGLEWVAAISPSGGSTYYADSVKGRFTISRDNAKNTLFLQMTSLRSEDTAMYYCAKESWGAYYDLWGQGTTVTVSSASTKGPSVFPLAPCSRSTSESTAALGCLVKDYFPEPVTVSWNSGALTSGVHTFPAVLQSSGLYSLSSVVTVPSSNFGTQTYTCNVDHKPSNTKVDKTVERKCEVECPECPAPPVAGPSVFLFPPKPKDTLMISRTPEVTCVVVAVSHEDPEVQFNWYVDGVEVHNAKTKPREEQFNSTFRVVSVLTVVHQDWLNGKEYKCKVSNKGLPSSIEKTISKTKGQPREPQVYTLPPSREEMTKNQVSLTCEVKGFYPSDIAVEWESNGQPENNYKTTPPMLDSDGSFFLYSKLTVDKSRWQQGNVFSCSVMHEALHNHYTQKSLSLSPGSGGGGGTSATATPGA[about 120 residues with changes left out here]
light: DIVMTQSPSSLSVSAGDKVTMSCRASQGISSWLAWYQQKPWQPPKLLIYKASTLESGVPDRFTGSGSGTDFTLTISSVQAEDLAVYYCQQSYSTPWTFGGGTKLEIKGTVAAPSVFIFPPSDEQLKSGTASVVCLLNNFYPREAKVQWKVDNALQSGNSQESVTEQDSKDSTYSLSSTLTLSKADYEKHKVYACEVTHQGLSSPVTKSFNRGEC
notes: not restated for this mutant; also called xmPD-IL15 V49R/E46G; xmPD1-IL15 V49R E46G
As to B1, the figures for the “Fold change = EC50 (PD-1(low))/EC50 (PD-1+)” value in assay [1] and in assay [5] were 384 fold and 230 fold, respectively. Moreover, the “pSTAT5 EC50 on PD-1+ 32D reporter cells” value in assay [1] came out at 11.8 pM; in assay [5], 14.9 pM. Besides, the entries for the “pSTAT5 EC50 on PD-1(low) 32D reporter cells” value in assay [2] and in assay [6] were 4.54 nM and 3.43 nM, respectively. Binding in assay [3] was characterised by a dissociation constant (Kd) of 437 nM. Further, the binding result in assay [4] was “no binding (tested: 3000 nM)”.

B2: xmPD-1-hIL15(wild-type) (other)
heavy 1: EVQLVESGGGLVKPGGSLELSCAASGFTFSSYWMSWVRQAPEKGLEWVAAISPSGGSTYYADSVKGRFTISRDNAKNTLFLQMTSLRSEDTAMYYCAKESWGAYYDLWGQGTTVTVSSASTKGPSVFPLAPCSRSTSESTAALGCLVKDYFPEPVTVSWNSGALTSGVHTFPAVLQSSGLYSLSSVVTVPSSNFGTQTYTCNVDHKPSNTKVDKTVERKCEVECPECPAPPVAGPSVFLFPPKPKDTLMISRTPEVTCVVVAVSHEDPEVQFNWYVDGVEVHNAKTKPREEQFNSTFRVVSVLTVVHQDWLNGKEYKCKVSNKGLPSSIEKTISKTKGQPREPQVYTLPPSREEMTKNQVSLTCEVKGFYPSDIAVEWESNGQPENNYKTTPPMLDSDGSFFLYSKLTVDKSRWQQGNVFSCSVMHEALHNHYTQKSLSLSPGSGGGGGTSATATPGA[about 120 residues left out here]
heavy 2: B1 heavy 1
light: B1 light
For B2, in assay [7], the affinity, expressed as Kd, was 0.084 nM; the koff stood at 0.000363 s⁻¹; the kon was 4.31e+06 M⁻¹ s⁻¹. In assay [8], this molecule had a Kd of 561 nM.
